Some of the results follow.
molecular target: T1, OsWOX13 (Oryza sativa, UniProt Q5QMM3 1-267); assay: protein-binding microarray (RPBM); PBS, 2% BSA, 51.3 ng/ul salmon testes DNA, 50 uM zinc acetate, 200 nM TF, 25 C, 1 h; high values mean tight binding; settings: protein: recombinant; tags: N-terminal polyhistidine and DsRed monomer fusion (pET32a); label: CyDye5-dUTP incorporated in the synthesized complementary strand; 3' TTTTT single-stranded linker to array surface; dsDNA, one strand shown
T1 sequence: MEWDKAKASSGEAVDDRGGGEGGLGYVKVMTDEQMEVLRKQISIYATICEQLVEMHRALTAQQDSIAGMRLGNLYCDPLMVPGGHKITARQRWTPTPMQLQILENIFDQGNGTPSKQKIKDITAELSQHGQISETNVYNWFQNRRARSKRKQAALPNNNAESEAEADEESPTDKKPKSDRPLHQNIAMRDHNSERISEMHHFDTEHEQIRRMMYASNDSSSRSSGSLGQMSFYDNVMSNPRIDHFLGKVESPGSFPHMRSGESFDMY
How it was run: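 An Axon 4000B scanner gave the binding signal as per-feature fluorescence intensity in arbitrary units. This followed washing of a custom Agilent array that had been incubated for 1 h at 25 °C with 200 nM protein in PBS, 2% BSA, salmon testes DNA and 50 µM zinc acetate. The proteins were transcription factors fused at the N-terminus to polyhistidine and DsRed, expressed in E. coli BL21-CodonPlus and purified on Ni–NTA.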

| Sequence | binding signal |
| --- | --- |
| TTTTCACTAAATTCTGATGAAATTTCAAACGGAACTATTCCGGAGTCACCTAGTGCAG | 3340 fluorescence intensity (a.u.) |
| TTGATTTTAATTAAAGTCAAAACATCTTATAACCTGAGGGCGGAGTCACCTAGTGCAG | 48200 fluorescence intensity (a.u.) |
| AGAGTTAAACAAATAAATAAACTAAATGAATTCGTACCTTCGGAGTCACCTAGTGCAG | 5610 fluorescence intensity (a.u.) |
| AAAGCTTAATTATTACTCCCTCCGTTTTAAAATGTTTGACCGGAGTCACCTAGTGCAG | 12200 fluorescence intensity (a.u.) |
| TAGTAAATTTACCTGTCAAGACATGGCCAAGTGATTGGTACGGAGTCACCTAGTGCAG | 28700 fluorescence intensity (a.u.) |
| GTATCTAGATTGGATACATCGAAACCATTTATATAAGTAACGGAGTCACCTAGTGCAG | 13200 fluorescence intensity (a.u.) |
| TTATTAATTAAGCCTAATTAATCTGTTATTAGCAAATGTTCGGAGTCACCTAGTGCAG | 51600 fluorescence intensity (a.u.) |
| TATATAATCCAATCTATCTCCATCCATCCCGATTCTTCTCCGGAGTCACCTAGTGCAG | 5380 fluorescence intensity (a.u.) |
| ATTAGATTTACACGGCTTTATATATCTATGCGCCTCTTGTCGGAGTCACCTAGTGCAG | 8310 fluorescence intensity (a.u.) |
| GACAAGTTGATAGAAAGCCTATGAACGTAAGCACTCCCTCCGGAGTCACCTAGTGCAG | 4760 fluorescence intensity (a.u.) |
| ATGCAACCAATCAGTATTAAGATGACTCCTCAAGTTTAGTCGGAGTCACCTAGTGCAG | 16400 fluorescence intensity (a.u.) |
| CGCTCTCCTAATTACCGCATTAACTCCCTTCCCTTCCCACCGGAGTCACCTAGTGCAG | 19300 fluorescence intensity (a.u.) |
| TTTGACAAGTACGTGATTAATTATTTTGGCTTGAACTGTCCGGAGTCACCTAGTGCAG | 34000 fluorescence intensity (a.u.) |
| TTGATTGATATTTTAAATTAACTTTATATACAAGCTAAAACGGAGTCACCTAGTGCAG | 34400 fluorescence intensity (a.u.) |
| GACAACGGATTGGATGATGATAGAGAGGGGAAAGGGAGTACGGAGTCACCTAGTGCAG | 12200 fluorescence intensity (a.u.) |
| AAGGGAATTAGTTAATTCACTTAATTGCCTCCTTATCCATCGGAGTCACCTAGTGCAG | 18300 fluorescence intensity (a.u.) |
| TACTTAATTTTGTTAGTGTAATAATCTGTGGATCATGCGGCGGAGTCACCTAGTGCAG | 25700 fluorescence intensity (a.u.) |
| ACTTTCTGTCAAGCGTCCGAATTACGGCGTCTCCTCGCCCCGGAGTCACCTAGTGCAG | 3420 fluorescence intensity (a.u.) |
| GGTGGGACTGATTAGAAGTCAGAAGAACAGCTTCCTTCATCGGAGTCACCTAGTGCAG | 19900 fluorescence intensity (a.u.) |
| ACCATCTGTCATGTCAAGATCATGACGTTTATTATATGATCGGAGTCACCTAGTGCAG | 3780 fluorescence intensity (a.u.) |
| ATAATTAGCATCAGCACCATCTAGCCATGTATGCAAACCCCGGAGTCACCTAGTGCAG | 8760 fluorescence intensity (a.u.) |

| Sequence | binding signal |
| --- | --- |
| TTGACGAGTAGAAATTAGTATTCACCTTAATATAACTCATCGGAGTCACCTAGTGCAG | 6150 fluorescence intensity (a.u.) |
| TTAGTAATTAATTTATTATACGTTATTTCTAAAAGGTGCGCGGAGTCACCTAGTGCAG | 31700 fluorescence intensity (a.u.) |
| TGACTTTGATTGAATTGATTAGCCTTTGTCGCAATGCATCCGGAGTCACCTAGTGCAG | 41600 fluorescence intensity (a.u.) |
| TATATATATATATATATATATATATATATATATATAGACACGGAGTCACCTAGTGCAG | 7880 fluorescence intensity (a.u.) |
| ATGTGATTATAGCTGATTTATAATCTGTATTATATATGTTCGGAGTCACCTAGTGCAG | 44900 fluorescence intensity (a.u.) |
| TTATGTAATTATAATTTATTTTATTGTGACTTGATTTATCCGGAGTCACCTAGTGCAG | 34000 fluorescence intensity (a.u.) |
| TCATCAAATCTGAATCTGAAATGAAGATTGAAGAACACCCCGGAGTCACCTAGTGCAG | 3410 fluorescence intensity (a.u.) |
| AGACCTAAATGATACTAATGATACTGTTAGACAAGTTCTACGGAGTCACCTAGTGCAG | 4470 fluorescence intensity (a.u.) |
| CTAATAATTAAGTTCACGAGCTCGAGCTCTAGTCATTGGTCGGAGTCACCTAGTGCAG | 6660 fluorescence intensity (a.u.) |
| TGTTATTTCAATCTCAGGATTGAGTGCAAGCAATCTGTTTCGGAGTCACCTAGTGCAG | 4210 fluorescence intensity (a.u.) |
| GAGTTTATAAATTGAGATATATCCGTCCTCCATTCTCAGGCGGAGTCACCTAGTGCAG | 6950 fluorescence intensity (a.u.) |
| ACAAGTTGATGGGGACACTTTTCTTATGTAGTATATAATTCGGAGTCACCTAGTGCAG | 3270 fluorescence intensity (a.u.) |
| TGCTTTATCAGTATAATTGGCAGTTCTCCTGCCTGTTCATCGGAGTCACCTAGTGCAG | 7320 fluorescence intensity (a.u.) |
| ACAAATTAAACTCTAACTAGTATACGTATATTCACAGTCACGGAGTCACCTAGTGCAG | 15700 fluorescence intensity (a.u.) |
| ATTAACATAATTGCAATGTAAGTATTAAAATTACAATGTACGGAGTCACCTAGTGCAG | 20200 fluorescence intensity (a.u.) |
| CAAATTGGTAAACTTGCAATAACATGATCCAATTAACCCACGGAGTCACCTAGTGCAG | 8100 fluorescence intensity (a.u.) |
| TCCATAATTACTAGTACTCCTAGATTGCAGAGTAGATAGGCGGAGTCACCTAGTGCAG | 19800 fluorescence intensity (a.u.) |
| TTCGGGATTGACTGCTTCGGCCCGGTTCCTCGACGGTAAGCGGAGTCACCTAGTGCAG | 24100 fluorescence intensity (a.u.) |
| CATTTCTATTATTATTGAACAATTTAATTGCGAGGGCGAGCGGAGTCACCTAGTGCAG | 5370 fluorescence intensity (a.u.) |
| GTGATTGATGCCGCCTGGGTTAGTTCAACTATTGCTGCATCGGAGTCACCTAGTGCAG | 55400 fluorescence intensity (a.u.) |
| TTCTGATGAAGAAGACGATGATTATGATAAGAGACGCCGGCGGAGTCACCTAGTGCAG | 6650 fluorescence intensity (a.u.) |

— PMC7819943, “Rice protein-binding microarrays: a tool to detect cis-acting elements near promoter regions in rice”
